# Reference: paper PMC6919601, “Identification of Plasmodium dipeptidyl aminopeptidase allosteric inhibitors by high throughput screening” (PLoS ONE, 2019)
# The campaign covered roughly 110,000 compounds. About 230 (0.21%) showed an effect of 50% or more. The list shows a part of the results.
# Target: DPAP1 (Plasmodium falciparum, UniProt Q8IIJ9)
# Experiment: primary screen, percent inhibition; read by cleavage of a fluorogenic dipeptide substrate; higher = more effect of the substance
# Parameters: species or system P. falciparum D10 trophozoite lysates; single well
# 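Further: 30 min substrate incubation versus DMSO and 10 µM JCP410 controls.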
# DPAP1, sequence (Q8IIJ9 whole entry, looked up): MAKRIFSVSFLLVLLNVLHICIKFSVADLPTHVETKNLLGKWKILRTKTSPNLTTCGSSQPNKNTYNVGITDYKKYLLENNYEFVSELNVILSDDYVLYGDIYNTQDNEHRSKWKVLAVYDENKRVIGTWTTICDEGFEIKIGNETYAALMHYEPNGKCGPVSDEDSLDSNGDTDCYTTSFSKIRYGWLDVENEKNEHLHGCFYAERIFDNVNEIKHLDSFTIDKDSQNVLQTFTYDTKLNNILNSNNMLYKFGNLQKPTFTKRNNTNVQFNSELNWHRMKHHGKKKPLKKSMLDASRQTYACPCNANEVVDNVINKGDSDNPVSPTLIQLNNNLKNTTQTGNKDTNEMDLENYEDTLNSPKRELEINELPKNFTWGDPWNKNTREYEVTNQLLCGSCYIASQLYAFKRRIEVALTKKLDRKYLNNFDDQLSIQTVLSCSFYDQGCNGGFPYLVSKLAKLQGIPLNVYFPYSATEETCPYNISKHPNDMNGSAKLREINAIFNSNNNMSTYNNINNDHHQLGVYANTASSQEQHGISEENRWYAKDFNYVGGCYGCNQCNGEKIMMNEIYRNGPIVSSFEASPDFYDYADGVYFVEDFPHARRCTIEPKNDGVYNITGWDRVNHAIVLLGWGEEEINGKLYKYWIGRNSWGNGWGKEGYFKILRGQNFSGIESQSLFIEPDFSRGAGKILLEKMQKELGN
row,Compound,% Inhibition @ 10 uM
1,N#Cc1nc(/C=C/c2cccs2)oc1NCc1ccc2c(c1)OCO2,1.67%
2,CCOc1ccccc1CNS(=O)(=O)c1ccc(-c2cc(C(F)(F)F)no2)s1,-1.95%
3,COc1ccc(C(=O)Nc2ccc(S(=O)(=O)N3CCCC3)cc2)cc1Br,4.57%
4,Cc1ccc(-n2c(S)nnc2-c2cccnc2)cc1Cl,-3.21%
5,OCCN1C2=NCCCN2c2ccccc21,-3.35%
6,Cc1ccc2c(c1)-c1c(cnn1CC(=O)NCc1cccnc1)CO2,-5.03%
7,CCOC(=O)NCc1cc(-c2nn(C)c(=O)c3ccccc23)ccc1C,5.44%
8,CCN(CC)CCN(C(=O)c1ccc(C(C)=O)cc1)c1nc2ccc(Cl)cc2s1,-2.95%
9,Cc1c(C2=CCN(S(=O)(=O)Cc3ccccc3)CC2)c2ccccc2n1CC(=O)N1CCCC1,3.96%
10,Cc1cccc(C)c1OCC(=O)Nc1ccc(C(=O)O)cc1,6.51%
11,Cc1cc(/C=C2/C(=N)N3C(=NC2=O)SN=C3S(=O)(=O)C(C)C)c(C)n1-c1ccccc1,-3.39%
12,COc1ccc(-c2nc(N3CCN(C)CC3)nc(O)c2C#N)cc1,1.9%
13,CCOc1ccc(CC(=O)N2N=C(C(F)F)CC2(O)C(F)F)cc1 (stereo not shown),2.92%
14,O=C(CSc1nc2c(c(=O)n1Cc1ccccc1)SCC2)N1CCCC1,2.19%
15,CCO/C(O)=C1\C(C)=NC2=C(C(=O)c3ccccc32)C1c1ccccc1Br (stereo not shown),-0.169%
16,CCCn1c(=O)c2sccc2n2c(CCCC(=O)NCCC3=CCCCC3)nnc12,-6.26%
17,CCOC(=O)c1nnn(-c2ccc(C)cc2)c1C(=O)OCC,-1.58%
18,COc1ccc(S(=O)(=O)N2CCCCC2C)cc1 (stereo not shown),-0.833%
19,CC12CN3CC(c4ccccc4)(CN(C1)C3(C)C)C2=O,-4.91%
20,CC(C)C[C@H](NC(=O)OCc1ccccc1)C(=O)NC1(C#N)CCN(CC(F)(F)F)CC1,1.35%
21,Cc1nnc(C)n1/N=C/C=C/c1ccccc1,-0.339%
22,COc1ccc(OC)c(C2CC(=O)C3=C(C2)NC(=O)CC3c2cccc(C)c2)c1 (stereo not shown),-2.87%
23,Cc1ccccc1OCCCCN1CCCC1,0.98%
24,COc1cc(OC)cc(C(=O)N2c3ccccc3CC2C)c1 (stereo not shown),-5.7%
25,CCOC(=O)C1=C(CN2CCC(C(N)=O)CC2)NC(=O)NC1c1ccc(F)cc1 (stereo not shown),2.58%
26,OC1(C#Cc2ccccc2)CCN(Cc2ccccc2)CC1,4.74%
27,Clc1ccccc1N1CCN(CCCc2ccccc2)CC1,-6.82%
28,Cc1nn(C(C)C(=O)NCCC2=CCCCC2)c(=O)c2nn(-c3ccccc3)c(C)c12 (stereo not shown),1.11%
